# The list shows a part of the results.
# Legend:
# Assay in all cases: glycan array binding signal (z-score within array); higher = stronger binding
# Settings in all cases: glycan notation: IUPAC condensed, linker removed
# [1] = target: Gal4S6S(b1-4)GlcNAc
# How it was run: (§1)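 Glycan array data were curated from 3228 arrays in the Consortium for Functional Glycomics database and kept only where the protein sequence was available. Glycan names were converted to IUPAC-condensed notation, and columns mapping to the same glycan were averaged. The binding signal is a within-array Z-score, averaged across arrays of the same protein sequence at different concentrations or buffers and across linkers. Negative Z-scores can be read as non-binding.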
# [2] = target: Gal6S(b1-4)Glc
# How it was run: as §1
# [3] = target: Gal6S(b1-4)Glc6S
# How it was run: as §1
# [4] = target: Gal6S(b1-4)GlcNAc
# How it was run: as §1
# [5] = target: GalNAc(a1-3)Gal
# How it was run: as §1
# [6] = target: GalNAc(a1-3)GalNAc
# How it was run: as §1
# [7] = target: GalNAc(b1-3)Gal(a1-4)Gal(b1-4)GlcNAc
# How it was run: as §1
# [8] = target: GalNAc(b1-3)GalNAc
# How it was run: as §1
# [9] = target: GalNAc(b1-4)GlcNAc
# How it was run: as §1
# [10] = target: Glc(a1-4)Glc
# How it was run: as §1
# [11] = target: Glc(a1-6)Glc(a1-6)Glc
# How it was run: as §1
# [12] = target: Glc(b1-4)Glc
# How it was run: as §1
# [13] = target: Glc(b1-6)Glc
# How it was run: as §1
# [14] = target: GlcA(b1-3)Gal
# How it was run: as §1
# [15] = target: GlcA(b1-6)Gal
# How it was run: as §1
# [16] = target: GlcNAc(a1-3)Gal(b1-4)GlcNAc
# How it was run: as §1
# [17] = target: GlcNAc(a1-6)Gal(b1-4)GlcNAc
# How it was run: as §1
# [18] = target: GlcNAc(b1-2)Gal(b1-3)GalNAc
# How it was run: as §1
# [19] = target: GlcNAc(b1-2)Man(a1-3)[GlcNAc(b1-2)Man(a1-6)]Man(b1-4)GlcNAc(b1-4)GlcNAc
# How it was run: as §1
# [20] = target: GlcNAc(b1-3)Gal
# How it was run: as §1
# [21] = target: GlcNAc(b1-3)Gal(b1-3)GalNAc
# How it was run: as §1
# [22] = target: GlcNAc(b1-3)Gal(b1-4)Glc
# How it was run: as §1
# [23] = target: GlcNAc(b1-3)Gal(b1-4)GlcNAc
# How it was run: as §1
# [24] = target: GlcNAc(b1-3)Gal(b1-4)GlcNAc(b1-3)Gal(b1-4)GlcNAc
# How it was run: as §1
# [25] = target: GlcNAc(b1-3)GalNAc
# How it was run: as §1
# [26] = target: GlcNAc(b1-3)[GlcNAc(b1-6)]Gal(b1-4)GlcNAc
# How it was run: as §1
# [27] = target: GlcNAc(b1-3)[GlcNAc(b1-6)]GalNAc
# How it was run: as §1
# [28] = target: GlcNAc(b1-3)[GlcNAc(b1-6)]GlcNAc(b1-4)GlcNAc
# How it was run: as §1
# [29] = target: GlcNAc(b1-4)Gal(b1-4)GlcNAc
# How it was run: as §1
# [30] = target: GlcNAc(b1-4)GlcNAc(b1-4)GlcNAc
# How it was run: as §1
# [31] = target: GlcNAc(b1-4)GlcNAc(b1-4)GlcNAc(b1-4)GlcNAc(b1-4)GlcNAc
# How it was run: as §1
# [32] = target: GlcNAc(b1-4)GlcNAc(b1-4)GlcNAc(b1-4)GlcNAc(b1-4)GlcNAc(b1-4)GlcNAc
# How it was run: as §1
# [33] = target: GlcNAc(b1-4)[GlcNAc(b1-6)]GalNAc
# How it was run: as §1
# [34] = target: GlcNAc(b1-6)Gal(b1-4)GlcNAc
# How it was run: as §1
# [35] = target: GlcNAc(b1-6)GalNAc
# How it was run: as §1
# [36] = target: Kdn(a2-3)Gal(b1-3)GlcNAc
# How it was run: as §1
# [37] = target: Kdn(a2-3)Gal(b1-4)GlcNAc
# How it was run: as §1
# [38] = target: Man(a1-2)Man(a1-2)Man(a1-3)Man
# How it was run: as §1
# [39] = target: Man(a1-2)Man(a1-2)Man(a1-6)[Man(a1-3)]Man
# How it was run: as §1
# [40] = target: Man(a1-2)Man(a1-3)Man
# How it was run: as §1
# [41] = target: Man(a1-2)Man(a1-3)[Man(a1-2)Man(a1-6)]Man
# How it was run: as §1
# [42] = target: Man(a1-2)Man(a1-3)[Man(a1-2)Man(a1-6)]Man(a1-6)[Man(a1-2)Man(a1-2)Man(a1-3)]Man(b1-4)GlcNAc(b1-4)GlcNAc
# How it was run: as §1
# [43] = target: Man(a1-2)Man(a1-3)[Man(a1-6)]Man(a1-6)[Man(a1-2)Man(a1-3)]Man(b1-4)GlcNAc(b1-4)GlcNAc
# How it was run: as §1
# [44] = target: Man(a1-2)Man(a1-6)[Man(a1-3)]Man(a1-6)[Man(a1-2)Man(a1-2)Man(a1-3)]Man(b1-4)GlcNAc(b1-4)GlcNAc
# How it was run: as §1
# [45] = target: Man(a1-3)[Man(a1-6)]Man
# How it was run: as §1
# [46] = target: Man(a1-3)[Man(a1-6)]Man(a1-6)[Man(a1-2)Man(a1-3)]Man(b1-4)GlcNAc(b1-4)GlcNAc
# How it was run: as §1
# [47] = target: Man(a1-3)[Man(a1-6)]Man(a1-6)[Man(a1-3)]Man(b1-4)GlcNAc(b1-4)GlcNAc
# How it was run: as §1
# [48] = target: Man(a1-3)[Man(a1-6)]Man(b1-4)GlcNAc(b1-4)GlcNAc
# How it was run: as §1
# [49] = target: Man(b1-4)GlcNAc
# How it was run: as §1
# [50] = target: Neu5Ac(a2-3)Gal
# How it was run: as §1
# [51] = target: Neu5Ac(a2-3)Gal(b1-3)GalNAc
# How it was run: as §1
# [52] = target: Neu5Ac(a2-3)Gal(b1-3)GalNAc(b1-3)Gal(a1-4)Gal(b1-4)Glc
# How it was run: as §1
binder,measurement,setting,value
MPA (Maclura pomifera) (protein) GVTFDDGAYTGIREINFEYNSETAIGGLRVTYDLNGMPFVAEDHKSFITGFKPVKISLEFPSEYIVEVSGYVGKVEGYTVIRSLTFKTNKQTYGPYGVTNGTPFSLPIENGLIVGFKGSIGYWLDYFSIYLSLNGPNGKSQSIIVGPWGDRVTN,glycan array binding signal (z-score),[1],-0.221
same,glycan array binding signal (z-score),[2],-0.234
same,glycan array binding signal (z-score),[3],-0.223
same,glycan array binding signal (z-score),[4],-0.219
same,glycan array binding signal (z-score),[5],-0.205
same,glycan array binding signal (z-score),[6],-0.212
same,glycan array binding signal (z-score),[7],-0.241
same,glycan array binding signal (z-score),[8],6.31
same,glycan array binding signal (z-score),[9],-0.232
same,glycan array binding signal (z-score),[10],-0.239
same,glycan array binding signal (z-score),[11],-0.243
same,glycan array binding signal (z-score),[12],-0.238
same,glycan array binding signal (z-score),[13],-0.239
same,glycan array binding signal (z-score),[14],-0.245
same,glycan array binding signal (z-score),[15],-0.238
same,glycan array binding signal (z-score),[16],-0.25
same,glycan array binding signal (z-score),[17],-0.14
same,glycan array binding signal (z-score),[18],5.63
same,glycan array binding signal (z-score),[19],-0.246
same,glycan array binding signal (z-score),[20],0.265
same,glycan array binding signal (z-score),[21],3.46
same,glycan array binding signal (z-score),[22],-0.241
same,glycan array binding signal (z-score),[23],-0.245
same,glycan array binding signal (z-score),[24],-0.241
same,glycan array binding signal (z-score),[25],6.85
same,glycan array binding signal (z-score),[26],-0.245
same,glycan array binding signal (z-score),[27],-0.244
same,glycan array binding signal (z-score),[28],-0.239
same,glycan array binding signal (z-score),[29],-0.246
same,glycan array binding signal (z-score),[30],-0.246
same,glycan array binding signal (z-score),[31],-0.253
same,glycan array binding signal (z-score),[32],-0.246
same,glycan array binding signal (z-score),[33],-0.245
same,glycan array binding signal (z-score),[34],-0.229
same,glycan array binding signal (z-score),[35],-0.237
same,glycan array binding signal (z-score),[36],-0.244
same,glycan array binding signal (z-score),[37],-0.244
same,glycan array binding signal (z-score),[38],-0.242
same,glycan array binding signal (z-score),[39],-0.242
same,glycan array binding signal (z-score),[40],-0.235
same,glycan array binding signal (z-score),[41],-0.247
same,glycan array binding signal (z-score),[42],-0.238
same,glycan array binding signal (z-score),[43],-0.244
same,glycan array binding signal (z-score),[44],-0.236
same,glycan array binding signal (z-score),[45],-0.25
same,glycan array binding signal (z-score),[46],-0.244
same,glycan array binding signal (z-score),[47],-0.243
same,glycan array binding signal (z-score),[48],-0.242
same,glycan array binding signal (z-score),[49],-0.24
same,glycan array binding signal (z-score),[50],-0.243
same,glycan array binding signal (z-score),[51],4.28
same,glycan array binding signal (z-score),[52],-0.244

# Reference: the supplement of paper PMC8728848
